# Reference: patent US9522171B2 (priority 2010, dated 2016)
# Read-outs that look alike come from different tables or passages of the source.
# Legend:
# human H1N1 virus [1] = tested on: human H1N1 virus
# human H1N1 virus [2] = settings: low inoculum (10^4 PFU) groups (FIG. 17)
# human H1N1 virus [3] = tested on: human H1N1 virus; remark: listed apart in the source
# [4] = 10^6 PFU, BAL Day 3, compared with vehicle
# [5] = low inoculum (10^4 PFU), compared to sham (mock) treated animals
substance,measurement,setting,value
"EV576: Lipocalin protein from salivary glands of the tick Ornithodoros moubata, sequence of FIG. 2; binds complement C5 and LTB4",total protein in BAL fluid,"human H1N1 virus [1]; 10^4 PFU, BAL Day 6, i.p., compared with vehicle",significantly lower
same,IL-6 level,"human H1N1 virus [1]; 10^4 PFU, compared with EV131 or vehicle (FIG. 9)",Reduction
same,CXC2 level,"human H1N1 virus [1]; 10^4 PFU, compared with EV131 or vehicle (FIG. 10)",Reduction
same,IL-1β,"human H1N1 virus [1]; 10^4 PFU, compared with EV131 or vehicle (FIG. 11)",Reduction
same,neutrophils per 100 mg lung tissue,"human H1N1 virus [1]; 10^4 PFU, compared with EV131 or vehicle (FIG. 15)",Relative reduction
same,total cells in BAL fluid,human H1N1 virus [1]; [4],Reduction
same,total protein in BAL fluid,human H1N1 virus [1]; [4],Reduction
same,neutrophils per 100 mg lung tissue,"human H1N1 virus [1]; 10^6 PFU, compared with EV131 or vehicle (FIG. 16)",Relative reduction
same,IL-6 level,"human H1N1 virus [1]; 10^6 PFU, compared with vehicle (FIG. 12)",Reduction
same,CXC2 level,"human H1N1 virus [1]; 10^6 PFU, compared with vehicle (FIG. 13)",Reduction
same,IL-1β,"human H1N1 virus [1]; 10^6 PFU, compared with vehicle (FIG. 14)",Reduction
same,CXCL2 level in BAL fluid,human H1N1 virus [1]; [5],not significantly different
same,IL-1β level in BAL fluid,human H1N1 virus [1]; [5],not significantly different
same,IL-6 level in BAL fluid,human H1N1 virus [1]; [5],not significantly different
same,sum of histopathological scores of lung inflammation (epithelial damage and inflammation),human H1N1 virus [2],reduced epithelial damage and inflammation
same,rise in C5a level in BALF,"human H1N1 virus [3]; high inoculum (10^6 PFU), day 3 (FIG. 22)",significantly attenuated rise
same,rise in C5a level in BALF,"human H1N1 virus [3]; low inoculum (10^4 PFU), day 6 (FIG. 21)",significantly attenuated rise
